Test results: publication PMC9574860, “Chemical Toolkit for PARK7: Potent, Selective, and High-Throughput” (Journal of Medicinal Chemistry, 2022)
Out of some 7,900 compounds screened, about 400 (5.1%) showed an effect of 50% or more. Some of the results follow.

Each compound was assayed against Parkinson's disease protein 7 (PARK7/DJ1) (human, UniProt Q99497) (assay: primary screen, percent inhibition; read as competition with a fluorescent probe by fluorescence polarization; higher = more effect of the substance). Conditions: 100 µM.
Parkinson's disease protein 7 (PARK7/DJ1), sequence (Q99497 whole entry, looked up, the tested form may be a part): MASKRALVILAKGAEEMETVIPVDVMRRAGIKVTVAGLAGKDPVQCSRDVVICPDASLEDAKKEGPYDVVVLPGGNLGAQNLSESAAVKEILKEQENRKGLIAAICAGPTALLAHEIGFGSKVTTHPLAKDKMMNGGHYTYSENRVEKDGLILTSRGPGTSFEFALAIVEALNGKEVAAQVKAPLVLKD
Procedure, shortened: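 Covalent fragments at 100 μM final were incubated 2 h with 0.2 μM PARK7, then 20 nM probe JYQ-107 added for a further 2 h. Fluorescence polarization read at 480/520 nm; relative FP loss versus reference controls gave remaining enzyme activity.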

Structure (SMILES) | Inhibition %
Clc1ccc([C@H]2CO2)cc1Cl | 5.75%
CC(C)(C)OC(=O)N1CCOc2c(cccc2B2OC(C)(C)C(C)(C)O2)C1 | 5.79%
CN(C)C(=O)Sc1cccc(N)c1.Cl | 15.1%
C=CC(=O)N1CCCC(C(=O)OC(C)(C)C)C1 (stereo not shown) | 11.6%
O=C(CCN1C(=O)CCC1=O)Nc1ccccc1F | 6.84%
C=CC(=O)Nc1nc2ccc(F)cn2n1 | 5.86%
C=CC(=O)N1CCN(CC(C)C)C(=O)C1C (stereo not shown) | 0.151%
C=CC(=O)Nc1cccc(-c2noc(C(F)F)n2)c1 | 6.78%
O=C(O)C=CC(=O)Nc1ccc(F)cc1 | 7.34%
CCc1cc(=O)[nH]c(=S)[nH]1 | 6.25%
O=c1[nH]c(S)nc2ccc(F)cc12 | 1.88%
Cc1c2cnnc(S)c2c(C)n1C | 7.71%
C=CC(=O)NC1CCSc2c(F)cccc21 (stereo not shown) | 10.1%
COc1ccc(S(=O)(=O)n2ccnc2C)cc1C | 9.92%
C=CC(=O)N1CC2(C)CC1CC(C)(C)C2 (stereo not shown) | 3.44%
O=S(=O)(F)c1ccc(S(=O)(=O)Nc2ccccn2)cc1 | 5.71%
Cl.O=C(CCl)N1CCN(CCOc2ccccc2)CC1 | 0.06%
C=CC(=O)NC1CCN(Cc2cccs2)CC1 | 9.36%
CC1(C)OB(c2cccc(-n3cnnn3)c2)OC1(C)C | 2.2%
Cc1cc(C)nc(NC#N)n1 | 4.54%
CCOc1ccc(C2CCCN2C(=O)CCl)cc1 (stereo not shown) | 28.1%
Cl.OB(O)c1ccc2cnccc2c1 | 4.5%
CC(C)(C)c1nc(Cn2cnc(C#N)n2)cs1 | 6.92%
C=CC(=O)N1CC(C)(C)C1c1ccco1 (stereo not shown) | 8.16%
CSc1cc(B2OC(C)(C)C(C)(C)O2)ccc1N | 8.09%

Structure (SMILES) | Inhibition %
N#Cc1cccc(O)n1 | 1.98%
O=C(NNS(=O)(=O)c1cccc(S(=O)(=O)F)c1)C1CCC1 | 99.9%
CN(Cc1cccc(C(F)(F)F)c1)C(=O)CCl | 37.1%
C=CC(=O)N1CCC(OC)C(C)C1 (stereo not shown) | 4.37%
O=C(CCl)NCc1ccc(F)cc1C(F)(F)F | 13.5%
CC(C)CC(=O)NNS(=O)(=O)c1cccc(S(=O)(=O)F)c1 | 98.2%
C=CC(=O)N(CC)Cc1nccs1 | 6.6%
C=CC(=O)NC(C)C1CCCCC1C (stereo not shown) | 2.06%
O=C(CCl)Nc1nc(-c2ccco2)cs1 | 21.8%
Cc1cc(F)cc(C(=O)N2CCC(C3OCCO3)CC2)c1 | 2.1%
Cc1csc(NC(=O)CS)n1 | 71.5%
CC(NC(=O)C(C#N)=Cc1cnn(C)c1)c1ccccc1 (stereo not shown) | 6.97%
C=CC(=O)NC1(Cc2ccc(F)cc2)CC1 | 7.92%
Cn1ccc(COc2ccc(B3OC(C)(C)C(C)(C)O3)cc2)n1 | 4.59%
O=C(CN1CCSC1=O)NC1CCN2CCCCC12 (stereo not shown) | 10.2%
C=CC(=O)N1CCC(Cc2ccccc2OC)CC1 | 7.23%
O=C(CCl)Nc1cc(C(F)(F)F)ccc1-n1cncn1 | 32.5%
C=CC(=O)N1CCC(CN)CC1.Cl | 2.16%
ClCCCc1nnnn1-c1ccccc1 | 8.31%
O=C(CCl)Nc1nnc(-c2ccco2)o1 | 24.5%
CC1(C)OB(c2cc3ccoc3cc2Cl)OC1(C)C | 2.39%
CCc1ccc(OC)c(S(=O)(=O)n2ccnc2CC)c1 | 29%
Cl.O=C(CCl)NCc1ccccc1CN1CCOCC1 | 3.64%
C=CCn1c(S)nc2sccc2c1=O | 30.7%
C=CC(=O)NCC1(C)CC1(F)F (stereo not shown) | 10.8%

Structure (SMILES) | Inhibition %
CN1CN=C(S)NC1 | 3.57%
COc1ccc(C2CCCN2C(=O)CCl)cc1 (stereo not shown) | 9.8%
N#CC(C(=O)Nc1ccccc1)=C1NCCCN1 | 6.27%
COc1cc(C#N)ncn1 | 4.18%
C=CC(=O)N1CCCC1c1ccc(CC)o1 (stereo not shown) | 15.5%
O=C(CCl)Nc1ccc2c(c1)NC(=O)CO2 | 32.7%
CC(C)(C)OC(=O)N1CCc2sc(B3OC(C)(C)C(C)(C)O3)cc2C1 | -1.84%
O=C(Nc1ccccc1F)N1CCCCC1C1OCCO1 (stereo not shown) | -0.462%
C=CC(=O)N[C@@H]1CC(=O)N(C)[C@H]1c1ccnn1C | 5.96%
CCn1ncc(NC(=O)C(F)(F)F)c1B1OC(C)(C)C(C)(C)O1 | 49.6%
Cl.NCC1CC2(CCC2)C(=O)O1 (stereo not shown) | 7.98%
CC(C)NC(=O)C(C#N)=Cc1ccc(O)cc1 | 9.15%
C=CC(=O)Nc1ccc(C(F)F)nc1 | 5.3%
O=C1CCC(C(=O)NC2CCCCCCC2)O1 (stereo not shown) | 4.2%
CNc1cccc(B2OC(C)(C)C(C)(C)O2)c1.Cl | 38.7%
N#Cc1cc(Cl)nc(C2CC2)n1 | 4.67%
C=CC(=O)N1CCC(c2ccc(C(F)(F)F)cc2)C1 (stereo not shown) | 11%
O=C(NCCCS(=O)(=O)F)OCc1ccccc1 | 95.8%
Cc1noc(C)c1-c1ccc(N2CCC2=O)cc1 | 8.35%
O=S(=O)(F)Cc1ccccc1Cl | 7.95%
CC1CCCC(C)N1C(=O)Cn1cnc(C#N)n1 (stereo not shown) | 3.14%
Cc1ccc(CN(C)C(=O)CCl)o1 | 40.8%
Cc1csc(CNc2ccnc(C#N)c2)n1 | 5.66%
N#CCCN(Cc1ccco1)C(=O)CCl | 9.85%
CNS(=O)(=O)c1cc(NC(=O)CCl)ccc1C | 6.77%

Structure (SMILES) | Inhibition %
CCn1ncnc1NS(=O)(=O)c1cccc(S(=O)(=O)F)c1 | 99%
O=C(CCl)NCCc1ccc(Cl)cc1Cl | 23.1%
O=c1c2ccccc2ncn1CCCl | 1.17%
C=CC(=O)N1CCC(CNC(=O)c2cnn(C)c2)CC1 | 7.88%
CS(=O)(=O)c1ccc(NC(=O)CCl)cc1 | 51.8%
C=CC(=O)Nc1ccn(CC2CCOC2)n1 (stereo not shown) | 4.28%
C=CC(=O)NC1CC2CCC(C2)C1 (stereo not shown) | 31%
CN(C(=O)Cn1ccc(=O)[nH]c1=O)C1CC(C)(C)OC1=O (stereo not shown) | 3.6%
CCOc1ccccc1Cn1cnc(C#N)n1 | 5.08%
O=C(CN1CCSC1=O)N1CCN(c2ccccc2)CC1 | 5.93%
Cc1cc(NC(=O)CCl)n(-c2ccccc2C)n1 | 13.5%
CC1(C)OB(c2ccc(C(N)=O)s2)OC1(C)C | 3.67%
Cc1cc(B2OC(C)(C)C(C)(C)O2)on1 | 27.5%
C=CC(=O)N1CCC(F)(F)CC1C (stereo not shown) | 9.18%
Cn1nc(B2OC(C)(C)C(C)(C)O2)c(Br)c1C(F)(F)F | -2.94%
C=CC(=O)N1CCC(c2ccn(C)n2)CC1 | 1.04%
C=CC(=O)N1CCC(c2ccccc2C)C1 (stereo not shown) | 1.59%
COc1cccc(NC(=O)C=CC(=O)O)c1 | 9.53%
CC1(C)OB(c2cccc(-c3nccs3)c2)OC1(C)C | 7.79%
C=CC(=O)Nc1cnc(OC)cn1 | 2.86%
C=CC(=O)N1CCN(Cc2ccc(OC)c(F)c2)CC1 | 6.4%
COc1ccccc1CS | 1.46%
N#CC(C(=O)N1CCCC1)=C1N=C(N)c2ccccc21 | 4.53%
Cc1cc(C#N)nc(NC2CCCC(C(F)(F)F)C2)n1 (stereo not shown) | 5.89%
C=CC(=O)Nc1ccc(N2CCCC2=O)c(OC)c1 | 13.1%

Structure (SMILES) | Inhibition %
CN(Cc1cccc(F)c1)C(=O)CCl | 44.5%
Cc1ccc(C=CS(=O)(=O)Nc2cc(C)on2)cc1 | 6.27%
N#CC(=Cc1csc(COc2ccccc2)n1)C(N)=O | 1.79%
O=C(CCl)NCC1(c2ccccc2)CCOCC1 | 0.416%
COc1ccccc1NC(=O)CCl | 9.22%
CC(=O)NCCc1ccc(C(=O)CCl)cc1F | 81.3%
OB(O)c1ccccc1OCC1CCOC1 (stereo not shown) | 5.05%
C=CC(=O)N1CC(=O)N(CC2CC2)C1 | 7.15%
CC1(C)OB(c2ccc(CN3CCS(=O)(=O)CC3)cc2)OC1(C)C | 1.69%
COc1cc(C=C(C#N)C(N)=O)ccc1O | 21%
COC(=O)c1ccc(Cl)c(NC(=O)CCl)c1 | 11%
CC1CC(N(C)Cc2ccc(Cl)nc2)C(=O)O1 (stereo not shown) | 11.3%
COc1ccc(C(=O)CCl)cc1 | 3.52%
C=CC(=O)N1CCN(c2ccnc(C)n2)CC1 | 7.33%
C=CC(=O)N(C)C1CC(c2ccccc2)C1 (stereo not shown) | 8.45%
Cc1nc(S)c(C(N)=O)c(C)c1C | -0.0342%
Cc1nc(C#N)n(CC(=O)N(C)Cc2cccs2)c1C | 3.54%
C#CC(=O)N1C[C@H]2CNC[C@H]2C1.O=C(O)C(F)(F)F | 1.17%
C=CC(=O)Nc1cnc2c(C)cccn12 | 8.53%
CC1(C)OB(c2cc(Cl)cc(Cl)c2)OC1(C)C | 81%
OB(O)c1ccc2ccccc2c1F | -0.918%
N#CC=C(N)c1ccc(Cl)cc1 | 5.91%
C=CCn1c(S)nc2cc(C(=O)NCCO)ccc2c1=O | 7.16%
CC(C)(C)n1ncc2c1CCCC2NC(=O)CCl.Cl (stereo not shown) | 12.4%
